Source: US20230338553A1 (TECHNISCHE UNIVERSIT T DRESDEN, published 2023)

Biological target: T1, Prostate Stem Cell Antigen (PSCA) (human, UniProt O43653 12-83)
T1 sequence (looked up): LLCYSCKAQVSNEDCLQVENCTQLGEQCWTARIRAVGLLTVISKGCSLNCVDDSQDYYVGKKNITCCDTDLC
Experiment: cell-based or functional assay

- IC50 of NF-kappaB activation (SEAP reporter, 293T-Blue^TLR3/PSCA cells): 12.5 nM
B1: BICs containing RIBOXXOL and scFv(h-AM1)-BAP (other)
scFv: DAAQPARRARRTKLGTELGSEVQLLESGGGLVQPGGSLRLSCVASGFTFSSYTMSWVRQAPGKGLEWVSYIHNGGGHTYYADSVKGRFTISRDNSKNTLYLQMNSLRAEDTAVYYCTRRMYYGNSHWYFDVWGAGTRVTITSAKTTPPSVYGGGGSGGGGSGGGGSTNSDIQMTQSPSSLSASVGDRVTITCRTSQSISNYLNWYQQKPGKAPKLLIYYTLKLNSGVPSRFSGSGSGTDFTLTISSLQPEDFATYYCQQSKTLPWTFGGGTKLEIKRADAAPTVSGPEQKLISEEDLNSAVDMSGLNDIFEAQKIEWHEGAPSSHHHHHH
chain: ARKCSLTGKWTNDLGSNMTIGAVNSRGEFTGTYITAVTATSNEIKESPLHGTQNTINKRTQPTFGFTVNWKFSESTTVFTGQCFIDRNGKEVLKTMWLLRSSVNDIGDDWKATRVGINIFTRLRTQKE
modifications: mono-biotinylated at the BAP
